# Experimental data published in the supplement of paper PMC10037445.
# Over roughly 2,900 compounds, “IRF Lucia reporter activity, fold change vs agonist alone” has its median near 0.9; the highest 2% begin near 2.8. The list shows a part of the results.
# Key:
# RAW-Dual [1] = test: IRF Lucia reporter activity, fold change vs agonist alone; cytotoxicity flag (confluency mask): not cytotoxic; higher = enhanced IRF activity
# In short: (§1)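 RAW-Dual macrophages were seeded in DMEM at 50,000 cells/well in 384-well plates, given 50 nL of library stock by pin tool, and given a PRR agonist 1 h later. Plates were held at 37 °C, 5% CO2 for 20 hours, after which supernatant was read for IRF by QuantiLuc luminescence and for NF-κB by QuantiBlue absorbance at 620 nm. Reporter activity is expressed as fold change over wells that received agonist alone. A well was called cytotoxic when IncuCyte confluency fell below 70% of agonist controls in both mask sets.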
# RAW-Dual [2] = test: IRF Lucia reporter activity, fold change vs agonist alone; higher = enhanced IRF activity; conditions: library stock concentration (final ~1000-fold dilution): 10 mM; cytotoxicity flag (confluency mask): not cytotoxic; agonist: MPLA (TLR4) […]
# In short: as §1
# [3] = agonist: 3'3'-cGAMP (STING) 10 ug/mL
SMILES,IRF Lucia reporter activity (RAW-Dual [1]; [3]),IRF Lucia reporter activity (RAW-Dual [1]; agonist: LPS (TLR4) 0.1 ug/mL),IRF Lucia reporter activity (RAW-Dual [2])
Cc1ccc(C)c(N/C=C/C(=O)c2ccccc2)c1 (library stock concentration (final ~1000-fold dilution): 10 mM),0.732,1.42,–
CC(=O)N1CCCC1C(=O)NC(Cc1c[nH]cn1)C(=O)NC(CO)C(=O)NC(CS)C(=O)NC(CC(N)=O)C(N)=O (stereo unspecified) (library stock concentration (final ~1000-fold dilution): 10 mM water),1.54,1.03,–
CC(C)NC(=N)NC(=N)Nc1ccc(Cl)cc1 (library stock concentration (final ~1000-fold dilution): 10 mM),1.04,1.54,–
CC(C)NC(=N)NC(=N)Nc1ccc(Cl)cc1,–,–,1.34
CC(C)n1cnc2c(NCCc3ccc(O)cc3)nc(-c3csc4ccccc34)nc21,–,–,1.81
CC(C)n1cnc2c(NCCc3ccc(O)cc3)nc(-c3csc4ccccc34)nc21 (library stock concentration (final ~1000-fold dilution): 10 mM),0.24,0.622,–
CC(CS)C(=O)N1CCCC1C(=O)O (stereo unspecified),–,–,0.97
CC(CS)C(=O)N1CCCC1C(=O)O (stereo unspecified) (library stock concentration (final ~1000-fold dilution): 10 mM),1.11,0.934,–
Cc1nc2c(O)cccc2c(=O)[nH]1 (library stock concentration (final ~1000-fold dilution): 10 mM),1.12,0.96,–
O=C(NNc1ccccc1)c1ccncc1 (library stock concentration (final ~1000-fold dilution): 10 mM),0.679,1.01,–
Cn1c(=O)c(F)c(Nc2ccc(I)cc2F)c2c(=O)n(CC(O)CO)cnc21 (stereo unspecified) (library stock concentration (final ~1000-fold dilution): 10 mM),0.517,0.819,–
Cn1c(=O)c(F)c(Nc2ccc(I)cc2F)c2c(=O)n(CC(O)CO)cnc21 (stereo unspecified),–,–,1.23
c1cc(CN2CCCNCCNCCCNCC2)ccc1CN1CCCNCCNCCCNCC1 (library stock concentration (final ~1000-fold dilution): 2 mM water),1.1,0.745,–
C#Cc1cccc(Nc2ncnc3cc(OC)c(NC(=O)N4CC5CCN(C)C5C4)cc23)c1 (stereo unspecified) (library stock concentration (final ~1000-fold dilution): 10 mM),0.535,0.922,–
CC(=O)O[C@@H]1CC[C@@]2(C)[C@@H](CC[C@]3(C)[C@@H]2C(=O)C=C2[C@@H]4[C@@H](C)[C@H](C)CC[C@]4(C)CC[C@]23C)[C@@]1(C)C(=O)O (library stock concentration (final ~1000-fold dilution): 10 mM),1.12,0.479,–
C=CC1(C)CC(OC(=O)CSCCN(CC)CC)C2(C)C(C)CCC3(CCC(=O)C32)C(C)C1O (stereo unspecified),–,–,1.03
C=CC1(C)CC(OC(=O)CSCCN(CC)CC)C2(C)C(C)CCC3(CCC(=O)C32)C(C)C1O (stereo unspecified) (library stock concentration (final ~1000-fold dilution): 10 mM),0.332,1.46,–
O=C(O)CN(CC(=O)O)c1ccccc1OCCOc1ccccc1N(CC(=O)O)CC(=O)O (library stock concentration (final ~1000-fold dilution): 10 mM),0.984,1.2,–
Cc1cc(C#N)cc(C)c1Oc1nc(Nc2ccc(C#N)cc2)nc(N)c1Br (library stock concentration (final ~1000-fold dilution): 10 mM),1.09,2.87,–
Cc1cc(C#N)cc(C)c1Oc1nc(Nc2ccc(C#N)cc2)nc(N)c1Br,–,–,2.4
COC(=O)c1ccc(O)c(O)c1 (library stock concentration (final ~1000-fold dilution): 10 mM),0.264,0.878,–
CNS(=O)(=O)CC1CCC(N(C)c2ncnc3[nH]ccc23)CC1.O=C(O)/C=C\C(=O)O (stereo unspecified) (library stock concentration (final ~1000-fold dilution): 10 mM),0.106,0.264,–
CCC(C)Nc1cc(C(=O)NC2CC3CCC(C2)N3c2ccc(C(=O)C3CC3)cn2)c(C)cc1C(N)=O (stereo unspecified),–,–,0.838
CCC(C)Nc1cc(C(=O)NC2CC3CCC(C2)N3c2ccc(C(=O)C3CC3)cn2)c(C)cc1C(N)=O (stereo unspecified) (library stock concentration (final ~1000-fold dilution): 10 mM),0.482,0.924,–
COc1ccc(-c2coc3cc(O[C@@H]4O[C@H](CO)[C@@H](O)[C@H](O)[C@H]4O)ccc3c2=O)cc1O (library stock concentration (final ~1000-fold dilution): 10 mM),0.018,0.0222,–
CNC(=O)c1ccc2cc(C3(O)CCn4cncc43)ccc2c1 (stereo unspecified),–,–,0.973
CNC(=O)c1ccc2cc(C3(O)CCn4cncc43)ccc2c1 (stereo unspecified) (library stock concentration (final ~1000-fold dilution): 10 mM),1.05,1.04,–
